Measured values from the supplement of paper PMC3334620.
Whole data set: some 33,000 sequences, median “E-score (-0.5 to 0.5)” near -0.035, cut for the highest 2% near 0.35. The list shows a part of the results.

Target: T1, Pdr3 (UniProt P33200)
T1 sequence: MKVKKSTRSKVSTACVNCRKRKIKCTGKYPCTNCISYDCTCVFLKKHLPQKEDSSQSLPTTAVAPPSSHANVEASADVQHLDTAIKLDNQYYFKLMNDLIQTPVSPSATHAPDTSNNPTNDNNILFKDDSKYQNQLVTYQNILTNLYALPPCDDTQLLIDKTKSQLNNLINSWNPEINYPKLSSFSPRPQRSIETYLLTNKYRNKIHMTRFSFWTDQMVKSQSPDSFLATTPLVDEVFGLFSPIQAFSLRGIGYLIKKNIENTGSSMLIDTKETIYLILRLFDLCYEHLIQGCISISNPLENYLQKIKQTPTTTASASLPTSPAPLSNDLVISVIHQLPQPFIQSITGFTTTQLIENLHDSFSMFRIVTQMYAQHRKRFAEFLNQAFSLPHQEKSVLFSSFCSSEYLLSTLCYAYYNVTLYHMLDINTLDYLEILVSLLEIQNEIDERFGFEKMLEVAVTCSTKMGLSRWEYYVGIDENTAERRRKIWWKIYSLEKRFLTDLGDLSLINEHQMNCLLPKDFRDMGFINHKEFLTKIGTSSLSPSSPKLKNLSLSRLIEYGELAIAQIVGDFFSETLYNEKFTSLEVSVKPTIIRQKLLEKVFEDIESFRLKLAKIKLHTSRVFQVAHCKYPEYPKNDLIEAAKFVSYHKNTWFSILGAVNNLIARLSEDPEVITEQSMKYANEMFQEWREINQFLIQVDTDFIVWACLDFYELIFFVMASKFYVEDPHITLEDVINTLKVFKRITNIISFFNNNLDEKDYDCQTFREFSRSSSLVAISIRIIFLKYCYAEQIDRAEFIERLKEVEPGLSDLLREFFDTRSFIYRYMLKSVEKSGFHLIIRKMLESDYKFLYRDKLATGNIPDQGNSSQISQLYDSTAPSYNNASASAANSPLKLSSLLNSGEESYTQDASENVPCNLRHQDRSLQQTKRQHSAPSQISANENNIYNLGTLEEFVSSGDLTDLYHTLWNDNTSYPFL
Assay: PBM E-score (8-mer binding enrichment) (E-score (-0.5 to 0.5)); higher = stronger / more preferred TF binding; most listed sequences are background and not binding sites
Conditions: protein concentration: 200 nM; construct: GST-full length
Summary of the method: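 Yeast transcription factors, full-length or as DNA-binding domains, were expressed with a GST tag using PURExpress in vitro transcription/translation. At about 100-200 nM they were applied to universal all-10-mer Agilent arrays, double-stranded by primer extension on fresh or once-stripped slides. Fluorescent anti-GST detected bound protein, and masliner normalised the scans. E-scores for ungapped eight-base words, pooled with reverse complements, came from the Universal PBM Analysis Suite.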

Compared with AACCCGAG, TCATGTAA is lower in “PBM E-score” value: 0.238 for the first, -0.182 for the second.

Going from AGCGGCCC to AAATGCGT, the “PBM E-score” value falls from 0.0341 to -0.0464.

Going from GAGTCTGA to ATTTGTAC, the “PBM E-score” value rises from -0.152 to -0.138.

Compared with CATAGACA, CAAGCCTG is lower in “PBM E-score” value: -0.0755 for the first, -0.257 for the second.

First: GCGTTCAC
Second: ATGTTGCC
The “PBM E-score” value of the first is lower: -0.114 for the first, -0.0328 for the second.

Going from ACTACAGT to AAGCTACA, the “PBM E-score” value falls from -0.24 to -0.264.

Going from ATGCTTAA to CATCACGC, the “PBM E-score” value falls from -0.0561 to -0.0621.

Going from AAGATTAA to GAAACCTA, the “PBM E-score” value falls from 0.0157 to -0.0777.

First: GACCCTTA
Second: CATTCCTC
The “PBM E-score” value of the first is lower: -0.212 for the first, 0.0812 for the second.

First: ATTGGGCG
Second: AATCACGC
The “PBM E-score” value of the first is lower: -0.011 for the first, 0.0492 for the second.

Going from CTATTTAC to ATATATTG, the “PBM E-score” value falls from 0.0464 to 0.0274.

Compared with GAGCTGAA, TATTGCGA is higher in “PBM E-score” value: -0.0952 for the first, 0.0578 for the second.

Compared with CTGGTATA, TCCCGCCA is higher in “PBM E-score” value: -0.175 for the first, 0.28 for the second.

Compared with GGCTTATA, ACCGAGTA is higher in “PBM E-score” value: -0.14 for the first, 0.0879 for the second.

Going from ATAGAGGG to ACTTCTCC, the “PBM E-score” value rises from -0.0467 to 0.126.

Compared with ATACCTAT, CGTCTCAC is lower in “PBM E-score” value: -0.00049 for the first, -0.132 for the second.

Going from AATGCAAG to CAATCCGC, the “PBM E-score” value rises from -0.0683 to 0.265.

Going from CGAGAGAC to GCGAGTGA, the “PBM E-score” value rises from -0.176 to -0.0429.

First: AACATCAA
Second: ACTAAGAT
The “PBM E-score” value of the first is higher: 0.0672 for the first, -0.0196 for the second.

Compared with TGGTAAAA, CGTAGGTC is lower in “PBM E-score” value: -0.114 for the first, -0.26 for the second.

Compared with AACTACCA, GGTCGTCA is higher in “PBM E-score” value: -0.19 for the first, -0.132 for the second.

Compared with CACCACGG, AAGCTTAA is higher in “PBM E-score” value: -0.0288 for the first, 0.0158 for the second.

Compared with GCTCTGCA, CTAAACCC is higher in “PBM E-score” value: -0.161 for the first, -0.0585 for the second.

Compared with ATTTTGGG, CAAACTTA is higher in “PBM E-score” value: -0.134 for the first, -0.00098 for the second.

Going from CACATACA to CACCCAGG, the “PBM E-score” value rises from -0.207 to -0.11.

Going from CCACGGAG to AAGCTAAG, the “PBM E-score” value falls from 0.429 to -0.265.

Compared with TCCAAGAA, TTCTCAAA is lower in “PBM E-score” value: -0.108 for the first, -0.115 for the second.

Compared with CCAGTTTC, GTTGTTCA is lower in “PBM E-score” value: 0.0244 for the first, -0.104 for the second.

Compared with TAGTACTA, ACCGCCGG is higher in “PBM E-score” value: -0.135 for the first, 0.288 for the second.

Going from GAATTAAA to CTACGTTA, the “PBM E-score” value falls from 0.0131 to -0.0972.

Going from ATTAGGTC to AGCACTTA, the “PBM E-score” value falls from 0.0884 to -0.102.

Compared with CTAGATCC, CCTAAACC is lower in “PBM E-score” value: -0.0466 for the first, -0.2 for the second.

Compared with GCCTGTGA, GTCGTCAC is higher in “PBM E-score” value: -0.242 for the first, -0.197 for the second.

Going from ACGGTGAA to ATTATTAG, the “PBM E-score” value falls from -0.0181 to -0.0723.

Going from GGTCTCAA to AGCATGCT, the “PBM E-score” value rises from -0.179 to -0.108.

Compared with CGACACAG, CCCAACAA is lower in “PBM E-score” value: -0.0293 for the first, -0.0732 for the second.

Compared with GCGTCCAA, GTGATAAA is higher in “PBM E-score” value: -0.127 for the first, -0.0503 for the second.

Going from TGGCGAAA to TAGCACAA, the “PBM E-score” value falls from -0.0244 to -0.0987.

Compared with CTTCAATA, CAGGGAAG is lower in “PBM E-score” value: -0.0336 for the first, -0.192 for the second.

Going from CGGAGAAC to TACGCTCA, the “PBM E-score” value falls from 0.272 to -0.261.

Compared with CTGTGTTC, AACGCATA is lower in “PBM E-score” value: 0.0921 for the first, -0.112 for the second.

First: CAATACCC
Second: TCCGAAGA
The “PBM E-score” value of the first is lower: 0.0782 for the first, 0.339 for the second.

Going from CGATGGCA to CGCAATAG, the “PBM E-score” value falls from -0.0105 to -0.0261.

Going from ACCGACGG to AACAGTGA, the “PBM E-score” value falls from 0.229 to -0.0881.

Compared with GTACAGTA, AGTCACAG is lower in “PBM E-score” value: -0.113 for the first, -0.199 for the second.

First: CCCCCGCA
Second: CAGAAAGG
The “PBM E-score” value of the first is higher: -0.0494 for the first, -0.151 for the second.

Compared with TTACGCAA, CGAGCGTA is higher in “PBM E-score” value: -0.0756 for the first, -0.00809 for the second.

Going from CATAGCTC to ACAGTGGA, the “PBM E-score” value rises from -0.0914 to -0.0482.

First: CAGGGTCC
Second: CAGATTAC
The “PBM E-score” value of the first is lower: -0.155 for the first, -0.0927 for the second.

Going from ACGATGTA to CGATGATA, the “PBM E-score” value rises from -0.111 to 0.154.

Going from GAATTTGA to TAAGACTA, the “PBM E-score” value falls from 0.0448 to -0.1.

First: GAGAATCC
Second: CTTAATAC
The “PBM E-score” value of the first is higher: 0.225 for the first, -0.134 for the second.

Compared with ACCTCTCC, AAAGATCG is higher in “PBM E-score” value: -0.0628 for the first, -0.0324 for the second.

Compared with CGTCTCAG, GAAGGGAA is higher in “PBM E-score” value: -0.204 for the first, -0.0562 for the second.

Compared with AACTCGAG, AGGAACGG is higher in “PBM E-score” value: 0.0466 for the first, 0.228 for the second.

Compared with CTTAAAGA, CATAACAG is lower in “PBM E-score” value: -0.238 for the first, -0.265 for the second.

First: GCCCACCA
Second: CCCAAGCG
The “PBM E-score” value of the first is lower: -0.11 for the first, 0.00643 for the second.

Going from AACTTGTA to ATTAACAC, the “PBM E-score” value rises from -0.15 to 0.0702.

First: CTTTGGTA
Second: ACCATAAA
The “PBM E-score” value of the first is lower: -0.113 for the first, -0.0954 for the second.

Going from CCCAATAC to GGAGTGTA, the “PBM E-score” value falls from -0.0296 to -0.0955.

Compared with ATTTACCC, GAGTGTCA is lower in “PBM E-score” value: 0.121 for the first, 0.115 for the second.

Going from AGAGTGCA to TAGACGAA, the “PBM E-score” value falls from -0.171 to -0.215.

Compared with AAGAACCC, AATTGTAA is lower in “PBM E-score” value: -0.00045 for the first, -0.204 for the second.

Going from ACAGGGAA to AGCCCAGC, the “PBM E-score” value rises from -0.138 to -0.129.

Compared with TGTTACAA, GTACTCGA is lower in “PBM E-score” value: -0.00396 for the first, -0.0779 for the second.

First: GAGATCTA
Second: CATATGAA
The “PBM E-score” value of the first is lower: -0.19 for the first, 0.0687 for the second.

Compared with AGCTAATC, TAGCCAGA is lower in “PBM E-score” value: -0.0527 for the first, -0.201 for the second.

Compared with GTCCACGA, GGAGCTAC is higher in “PBM E-score” value: -0.114 for the first, -0.0989 for the second.

Going from AGAGTCTG to ACGCTCGC, the “PBM E-score” value rises from -0.311 to -0.106.

First: AAAGGATT
Second: CAACCACA
The “PBM E-score” value of the first is lower: -0.112 for the first, 0.0554 for the second.

Going from CTGACAAA to AAAAGGCA, the “PBM E-score” value rises from -0.221 to 0.0241.

Going from AAAGTGCT to AGCACCGA, the “PBM E-score” value rises from -0.132 to 0.0432.

First: ATACTGGA
Second: AACGTACT
The “PBM E-score” value of the first is higher: 0.022 for the first, -0.0185 for the second.

Going from TCCAATAA to AAGGCAAT, the “PBM E-score” value falls from 0.104 to -0.00094.

Compared with ATAGCCTG, AAGCCCAG is higher in “PBM E-score” value: -0.239 for the first, -0.108 for the second.

Compared with GGTGTTGA, CGCCCCGC is higher in “PBM E-score” value: -0.143 for the first, 0.25 for the second.

Compared with ACATAGAC, GACTGCAA is lower in “PBM E-score” value: -0.151 for the first, -0.221 for the second.

Compared with ACACATCC, ACCTGGGC is lower in “PBM E-score” value: 0.144 for the first, -0.326 for the second.

First: GGTTGAAC
Second: CATTAACG
The “PBM E-score” value of the first is lower: 0.0522 for the first, 0.144 for the second.

Compared with AAGAATCA, GCGTGTCC is higher in “PBM E-score” value: 0.0654 for the first, 0.201 for the second.

First: ACACATGT
Second: CATTCAGA
The “PBM E-score” value of the first is higher: 0.0162 for the first, -0.146 for the second.

First: ATCCGCTA
Second: ACTACTTG
The “PBM E-score” value of the first is higher: 0.229 for the first, -0.136 for the second.

Going from ATTTCTAC to GCACGTGA, the “PBM E-score” value falls from -0.105 to -0.224.

First: AACTTAAC
Second: CAATCCCG
The “PBM E-score” value of the first is lower: 0.0508 for the first, 0.392 for the second.

Going from GAAGCACA to ATACCGTG, the “PBM E-score” value falls from 0.0799 to 0.0655.

Going from CCCCGGGG to GCACTCAA, the “PBM E-score” value falls from 0.412 to -0.101.
